# According to PubChem BioAssay (Tox21):
# Several values for one entry are separate records, joined by “and”; a condition that tells them apart may be missing. Equal values may be shown once. The shares of active, inactive and inconclusive entries below differ from those in the screen. Potencies of inconclusive entries are left out as doubtful fits. Activity calls are given as the source filed them. Unless noted, the call rests on the fitted dose curve; in most records, active means well fitted curve in the direction sought with a large enough effect in the repeat runs; inconclusive means weak or mixed curves; inactive means no such curve, though single readings can be large; an effect the other way counts as inactive or inconclusive.
# Test system: not listed separately
# Assay: qHTS assay to identify small molecule agonists of the retinoic acid receptor (RAR) signaling pathway (AID 1159553)
# Conditions: C3RL4 RARE luciferase reporter, agonist, 6 h; activation: at 73.3 µM (top of the series) unless noted
# In short: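 Activation of retinol signaling was monitored via a RARE luciferase reporter in C3RL4 cells. After 6 hr compound treatment at 37 C, detection reagent was added for 30 min at room temperature before luminescence reading.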
# On the % scale 0 is the no-effect control and ±100 the full control effect; potency means the concentration at half of the fitted maximal effect; tags describe the fitted curve by direction and shape.
Structure (SMILES),activation,Potency
C=C(C#N)C(=O)OCC,inconclusive: -0.149% [phenotype inactive],–
CN1C(C(=O)Nc2ccccn2)=C(O)c2sccc2S1(=O)=O,–,active: 29.8 µM
Brc1c2ccccc2cc2ccccc12,inactive: 3.45% [at 94.8 µM],–
c1csc(SSc2cccs2)c1,–,"inconclusive [inhibitor, partial curve]"
CCCCCCCCC1CCC(=O)O1 (centres undefined),–,"inconclusive [activator, full curve]"
CCCCCCCCCCCSCC(=O)O,inactive: 5.64%,–
CC1=CC[C@@H]2C[C@H]1C2(C)C,–,"inconclusive [inhibitor, single point]"
Sc1nc2ccccc2s1,inconclusive: -14.4% [phenotype inactive],–
Oc1ccc2c(c1)-c1ccccc1C2,–,"inconclusive [activator, partial curve, poor fit]"
NC(=O)N(O)[C@@H]1C=C[C@H](Oc2cccc(Oc3ccc(F)cc3)c2)C1,–,active: 61.1 µM
c1cc(N(CC2CO2)CC2CO2)ccc1Cc1ccc(N(CC2CO2)CC2CO2)cc1 (centres undefined),–,active: 30.6 µM
O=C(Oc1ccccc1)c1ccc(O)cc1,–,active: 19.4 µM and active: 30.6 µM

# Test system: not listed separately
# Assay: qHTS assay to identify small molecule antagonists of the estrogen related receptor (ERR) signaling pathway - cell viability counter screen (AID 1224818);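 further: viability measured after 17.5 h of compound exposure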
# Conditions: ERR reporter cell line viability counter screen; series mostly up to 46.1 µM; viability change, negative = cytotoxic: at the top concentration
# In short: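 In the same ERR cell assay, compound-treated wells (17.5 h, 37 C) were multiplexed with a fluorogenic viability reagent, CellTiter-Fluor, read after 30 min to flag cytotoxic substances.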
Structure (SMILES),"viability change, negative = cytotoxic",Potency
CN(C)CCCN1c2ccccc2CCc2ccccc21,inactive: -9.85%,–
C1COC(NC(C2CC2)C2CC2)=N1,inactive: -1.3%,–
CN(C)CC[C@@H](c1ccc(Cl)cc1)c1ccccn1,inactive: 1.07%,–
Cc1ccc(N(CC2=NCCN2)c2cccc(O)c2)cc1,inactive: 1.25%,–
CS(=O)(=O)Nc1ccc([N+](=O)[O-])cc1Oc1ccccc1,–,"inconclusive [cytotoxic, partial curve, poor fit]"
N[C@@H](COP(=O)(O)O)C(=O)O,inactive: 8.75%,–
OCCN1CCN(CCCN2c3ccccc3C=Cc3ccccc32)CC1,–,"inconclusive [cytotoxic, partial curve, poor fit]"

# Test system: not listed separately
# Assay: qHTS assay to identify small molecule antagonists of the estrogen related receptor (ERR) signaling pathway (AID 1224819; further: nearly all actives have a fitted effect of over 50% in size;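 on activity change, negative = inhibition: luminescence from an ERR-driven luciferase reporter measured with One-Glo reagent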)
# Conditions: ERR reporter cell line, luciferase inhibition; series mostly up to 46.1 µM; activity change, negative = inhibition: at the top concentration
# In short: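 qHTS in ERR cells, 2,000/well, 1536 format. Cpd (DMSO) added after 6 h settle, 18 h 37 C. One-Glo luminescence, 30 min RT.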
Structure (SMILES),"activity change, negative = inhibition",Potency
CC(=O)OC(C)C[N+](C)(C)C (centres undefined),inactive: 7.75%,–
CCN(CC)CCCC(C)Nc1c2ccc(Cl)cc2nc2ccc(OC)cc12 (centres undefined),–,inconclusive [inhibitor]
CC[N+](CC)(CC)CCOc1ccc(/C=C/c2ccccc2)cc1,–,active: 8.74 µM
C[C@H]1c2cccc(O)c2C(O)=C2C(=O)[C@]3(O)C(O)=C(C(N)=O)C(=O)[C@@H](N(C)C)[C@@H]3[C@@H](O)[C@@H]21,–,inconclusive [inhibitor]
CC(CCc1ccc(O)cc1)NCCc1ccc(O)c(O)c1 (centres undefined),inactive: -9.24%,–
NC/C=C/C(=O)O,inactive: 2.5%,–
NC(=O)c1cnccn1,inactive: 7.33%,–
CCCc1c(OCCCOc2ccc(OCC(=O)O)cc2)ccc(C(C)=O)c1O,inactive: -3.35%,–
CC1(C)NC(=O)N(c2ccc([N+](=O)[O-])c(C(F)(F)F)c2)C1=O,–,inconclusive [inhibitor]
CS(=O)(=O)Nc1ccc([N+](=O)[O-])cc1Oc1ccccc1,–,"inconclusive [inhibitor, single point]"
CC(C)C(=O)Nc1ccc([N+](=O)[O-])c(C(F)(F)F)c1,–,active: 22.8 µM
COC(=O)Nc1nc2ccc(C(=O)c3cccs3)cc2[nH]1,inactive: -6.71%,–
CNC[C@H](O)c1ccc(O)c(O)c1,inactive: 10.6%,–
CCOC(=O)Nc1ccc(NCc2ccc(F)cc2)nc1N,–,"inconclusive [inhibitor, partial curve, poor fit]"
COc1ccc([C@@H]2Sc3ccccc3N(CCN(C)C)C(=O)[C@@H]2OC(C)=O)cc1,–,inconclusive [inhibitor]

# Test system: estrogen-related receptor alpha (ERRalpha) with PGC-1alpha coactivator, human
# Assay: qHTS assay to identify small molecule antagonists of the estrogen related receptor signaling pathway with the pleiotropic PPARgamma coactivator (PGC) (AID 1224821; calls by dose curve; further: nearly all actives have a fitted effect of over 50% in size;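 on activity change, negative = inhibition: lower luminescence signal means antagonism of PGC/ERR signalling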)
# Conditions: ERR/PGC reporter cell line, luciferase, antagonist mode; series mostly up to 46.1 µM; activity change, negative = inhibition: at the top concentration
# In short: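 PGC/ERR reporter cell line, plated 6 h before compound addition, then exposed 18 h at 37 °C. Luciferase activity read by luminescence 30 min after One-Glo addition; decrease indicates antagonism.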
Structure (SMILES),Potency,"activity change, negative = inhibition"
CCN(CC)CCCC(C)Nc1c2ccc(Cl)cc2nc2ccc(OC)cc12 (centres undefined),active: 16.8 µM,–
C[C@H]1c2cccc(O)c2C(O)=C2C(=O)[C@]3(O)C(O)=C(C(N)=O)C(=O)[C@@H](N(C)C)[C@@H]3[C@@H](O)[C@@H]21,inconclusive [inhibitor],–
NC/C=C/C(=O)O,–,inactive: -5.17%
NC(=O)c1cnccn1,–,inactive: 24.3%
CC(C)C(=O)c1c(C(C)C)nn2ccccc12,–,inactive: -2.53%
CS(=O)(=O)Nc1ccc([N+](=O)[O-])cc1Oc1ccccc1,inconclusive [inhibitor],–
CC(C)C(=O)Nc1ccc([N+](=O)[O-])c(C(F)(F)F)c1,inconclusive [inhibitor],–
CC(C)NCC(O)c1ccc(O)c(O)c1 (centres undefined),–,inactive: 80.4%
CCOC(=O)C(C)(C)Oc1ccc(Cl)cc1,–,inactive: 6.61%
CCOC(=O)Nc1ccc(NCc2ccc(F)cc2)nc1N,–,inactive: -1.24%

# Test system: not listed separately
# Assay: qHTS assay to identify small molecule antagonists of the estrogen related receptor signaling pathway with the pleiotropic PPARgamma coactivator (PGC) cell viability counter screen (AID 1224822)
# Conditions: ERR/PGC reporter cell line viability counter screen; series mostly up to 46.1 µM; viability change, negative = cytotoxic: at the top concentration
# In short: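 Compounds in DMSO, with positive and negative controls, were applied to PGC/ERR cells (2,000/well) and left 17.5 h at 37 C before CellTiter-Fluor detection.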
Structure (SMILES),Potency,"viability change, negative = cytotoxic"
CCN(CC)CCCC(C)Nc1c2ccc(Cl)cc2nc2ccc(OC)cc12 (centres undefined),"inconclusive [cytotoxic, partial curve]",–
CN(C)CCCN1c2ccccc2CCc2ccccc21,–,inactive: -17.5%
C[C@H]1c2cccc(O)c2C(O)=C2C(=O)[C@]3(O)C(O)=C(C(N)=O)C(=O)[C@@H](N(C)C)[C@@H]3[C@@H](O)[C@@H]21,–,inactive: 8.6%
CC(CCc1ccc(O)cc1)NCCc1ccc(O)c(O)c1 (centres undefined),–,inactive: -5.92%
NC(=O)c1cnccn1,–,inactive: 13.7%
CCCN(CCC)CCc1cccc2c1CC(=O)N2,–,inactive: 3.38%
CC1(C)NC(=O)N(c2ccc([N+](=O)[O-])c(C(F)(F)F)c2)C1=O,–,inactive: 1.89%
OCCN1CCN(CCCN2c3ccccc3C=Cc3ccccc32)CC1,inconclusive [cytotoxic],–
CC(C)NCC(O)c1ccc(O)c(O)c1 (centres undefined),–,inactive: 13.3%
CNS(=O)(=O)CCc1ccc2[nH]cc(C3CCN(C)CC3)c2c1,–,inactive: 4.97%
